Among the data in paper PMC4534575, “The RNA Helicase DHX34 Activates NMD by Promoting a Transition from the Surveillance to the Decay-Inducing Complex” (Cell Reports, 2014) are binding values, retold here.

Sequences of proteins named here, by UniProt entry; tags and fusion partners are left off.
UniProt Q8IZH2: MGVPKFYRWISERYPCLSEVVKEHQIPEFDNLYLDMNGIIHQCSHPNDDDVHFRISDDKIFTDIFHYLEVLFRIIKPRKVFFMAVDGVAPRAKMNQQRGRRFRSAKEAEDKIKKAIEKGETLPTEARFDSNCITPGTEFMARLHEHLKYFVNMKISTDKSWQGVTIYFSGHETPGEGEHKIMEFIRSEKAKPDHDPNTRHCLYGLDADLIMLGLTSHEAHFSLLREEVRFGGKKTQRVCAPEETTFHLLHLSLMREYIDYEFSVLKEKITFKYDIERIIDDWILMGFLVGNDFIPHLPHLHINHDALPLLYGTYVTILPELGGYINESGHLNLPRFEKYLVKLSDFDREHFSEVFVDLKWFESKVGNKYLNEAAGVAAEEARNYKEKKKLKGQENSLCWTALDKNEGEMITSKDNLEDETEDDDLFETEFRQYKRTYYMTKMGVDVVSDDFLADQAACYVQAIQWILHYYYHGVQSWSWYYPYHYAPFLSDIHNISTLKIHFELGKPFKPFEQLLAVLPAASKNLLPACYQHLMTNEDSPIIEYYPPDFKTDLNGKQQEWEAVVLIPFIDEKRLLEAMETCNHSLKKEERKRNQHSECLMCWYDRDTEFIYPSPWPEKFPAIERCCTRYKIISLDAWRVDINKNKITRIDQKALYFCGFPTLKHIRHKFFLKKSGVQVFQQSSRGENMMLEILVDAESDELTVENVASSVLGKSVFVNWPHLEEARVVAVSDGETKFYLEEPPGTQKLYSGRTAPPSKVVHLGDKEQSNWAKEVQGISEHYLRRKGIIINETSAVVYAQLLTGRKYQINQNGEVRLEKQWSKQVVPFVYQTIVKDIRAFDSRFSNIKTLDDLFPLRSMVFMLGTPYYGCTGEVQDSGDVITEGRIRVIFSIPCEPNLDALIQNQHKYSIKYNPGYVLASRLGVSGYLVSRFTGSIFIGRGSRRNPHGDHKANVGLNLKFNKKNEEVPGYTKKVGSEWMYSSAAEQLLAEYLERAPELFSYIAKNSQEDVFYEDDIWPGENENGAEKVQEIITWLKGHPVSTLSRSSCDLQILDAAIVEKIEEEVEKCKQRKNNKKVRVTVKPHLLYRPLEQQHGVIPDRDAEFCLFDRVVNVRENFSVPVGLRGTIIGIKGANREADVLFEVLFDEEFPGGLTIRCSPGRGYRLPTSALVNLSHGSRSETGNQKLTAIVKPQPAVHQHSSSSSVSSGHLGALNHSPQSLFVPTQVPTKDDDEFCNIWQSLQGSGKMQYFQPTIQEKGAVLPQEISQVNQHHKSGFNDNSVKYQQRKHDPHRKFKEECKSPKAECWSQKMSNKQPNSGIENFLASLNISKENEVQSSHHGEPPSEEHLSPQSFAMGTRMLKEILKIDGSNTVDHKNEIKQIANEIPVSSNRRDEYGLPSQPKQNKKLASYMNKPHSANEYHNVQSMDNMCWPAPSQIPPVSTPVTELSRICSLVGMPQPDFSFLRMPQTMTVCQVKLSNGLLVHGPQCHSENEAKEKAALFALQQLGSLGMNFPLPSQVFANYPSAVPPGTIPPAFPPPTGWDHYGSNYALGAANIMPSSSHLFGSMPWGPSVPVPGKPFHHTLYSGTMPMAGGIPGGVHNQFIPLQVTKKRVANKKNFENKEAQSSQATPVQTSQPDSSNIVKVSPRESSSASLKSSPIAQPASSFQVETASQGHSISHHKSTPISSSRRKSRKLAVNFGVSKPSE
UniProt P11940: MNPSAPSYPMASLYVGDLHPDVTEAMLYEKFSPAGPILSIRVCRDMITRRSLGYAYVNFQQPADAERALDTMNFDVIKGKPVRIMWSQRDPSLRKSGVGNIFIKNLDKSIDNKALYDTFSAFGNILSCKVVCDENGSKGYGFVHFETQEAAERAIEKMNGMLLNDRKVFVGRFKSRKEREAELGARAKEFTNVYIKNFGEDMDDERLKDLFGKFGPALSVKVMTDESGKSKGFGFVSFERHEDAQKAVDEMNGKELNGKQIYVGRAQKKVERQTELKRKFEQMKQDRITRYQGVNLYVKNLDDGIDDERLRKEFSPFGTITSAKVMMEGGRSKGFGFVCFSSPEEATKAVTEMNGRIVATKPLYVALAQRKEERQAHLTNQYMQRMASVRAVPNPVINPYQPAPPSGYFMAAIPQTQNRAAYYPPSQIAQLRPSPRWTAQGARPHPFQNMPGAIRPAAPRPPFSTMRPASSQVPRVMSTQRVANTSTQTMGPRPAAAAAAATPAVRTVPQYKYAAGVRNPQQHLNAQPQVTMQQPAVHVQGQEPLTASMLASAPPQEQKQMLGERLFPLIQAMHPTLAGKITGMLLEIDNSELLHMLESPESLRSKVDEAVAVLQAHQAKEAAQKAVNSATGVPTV
UniProt Q86US8: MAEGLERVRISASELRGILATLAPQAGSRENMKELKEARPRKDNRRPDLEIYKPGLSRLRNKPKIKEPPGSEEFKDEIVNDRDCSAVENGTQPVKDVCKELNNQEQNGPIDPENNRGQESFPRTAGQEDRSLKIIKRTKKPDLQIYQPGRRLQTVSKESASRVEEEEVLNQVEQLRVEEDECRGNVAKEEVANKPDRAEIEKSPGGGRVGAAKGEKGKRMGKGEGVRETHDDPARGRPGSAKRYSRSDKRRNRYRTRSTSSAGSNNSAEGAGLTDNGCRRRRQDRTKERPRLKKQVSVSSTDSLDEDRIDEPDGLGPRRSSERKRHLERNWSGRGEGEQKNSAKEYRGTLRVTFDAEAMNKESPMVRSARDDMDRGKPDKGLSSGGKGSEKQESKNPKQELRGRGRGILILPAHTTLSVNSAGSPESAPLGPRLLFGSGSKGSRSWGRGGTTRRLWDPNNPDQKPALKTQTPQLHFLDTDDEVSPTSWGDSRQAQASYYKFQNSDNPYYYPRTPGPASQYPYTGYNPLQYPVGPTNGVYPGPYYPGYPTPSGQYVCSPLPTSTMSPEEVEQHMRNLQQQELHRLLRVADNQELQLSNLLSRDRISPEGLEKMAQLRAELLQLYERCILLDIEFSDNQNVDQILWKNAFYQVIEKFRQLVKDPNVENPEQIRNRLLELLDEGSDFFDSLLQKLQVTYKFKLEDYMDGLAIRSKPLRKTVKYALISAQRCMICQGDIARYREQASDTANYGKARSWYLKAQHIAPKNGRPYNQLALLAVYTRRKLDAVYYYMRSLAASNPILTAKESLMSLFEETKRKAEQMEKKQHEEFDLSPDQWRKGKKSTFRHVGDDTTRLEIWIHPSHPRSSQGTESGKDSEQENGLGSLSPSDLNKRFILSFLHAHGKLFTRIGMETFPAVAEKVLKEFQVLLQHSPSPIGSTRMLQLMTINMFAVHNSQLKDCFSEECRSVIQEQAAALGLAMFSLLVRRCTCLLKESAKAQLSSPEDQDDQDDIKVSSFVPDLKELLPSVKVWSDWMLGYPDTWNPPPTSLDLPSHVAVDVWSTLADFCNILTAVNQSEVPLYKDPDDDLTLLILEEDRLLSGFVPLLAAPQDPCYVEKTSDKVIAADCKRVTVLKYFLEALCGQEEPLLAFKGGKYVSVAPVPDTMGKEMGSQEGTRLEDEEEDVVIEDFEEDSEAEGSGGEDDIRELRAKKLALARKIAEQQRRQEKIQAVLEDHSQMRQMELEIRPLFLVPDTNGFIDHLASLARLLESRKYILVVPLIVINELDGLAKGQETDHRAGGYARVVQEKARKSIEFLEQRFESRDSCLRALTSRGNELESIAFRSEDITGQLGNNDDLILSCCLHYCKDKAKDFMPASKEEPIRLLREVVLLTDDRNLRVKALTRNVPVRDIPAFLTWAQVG

First the molecules themselves.
T1: FLAG-DHX34 (human) (UniProt Q14147)
T1 sequence: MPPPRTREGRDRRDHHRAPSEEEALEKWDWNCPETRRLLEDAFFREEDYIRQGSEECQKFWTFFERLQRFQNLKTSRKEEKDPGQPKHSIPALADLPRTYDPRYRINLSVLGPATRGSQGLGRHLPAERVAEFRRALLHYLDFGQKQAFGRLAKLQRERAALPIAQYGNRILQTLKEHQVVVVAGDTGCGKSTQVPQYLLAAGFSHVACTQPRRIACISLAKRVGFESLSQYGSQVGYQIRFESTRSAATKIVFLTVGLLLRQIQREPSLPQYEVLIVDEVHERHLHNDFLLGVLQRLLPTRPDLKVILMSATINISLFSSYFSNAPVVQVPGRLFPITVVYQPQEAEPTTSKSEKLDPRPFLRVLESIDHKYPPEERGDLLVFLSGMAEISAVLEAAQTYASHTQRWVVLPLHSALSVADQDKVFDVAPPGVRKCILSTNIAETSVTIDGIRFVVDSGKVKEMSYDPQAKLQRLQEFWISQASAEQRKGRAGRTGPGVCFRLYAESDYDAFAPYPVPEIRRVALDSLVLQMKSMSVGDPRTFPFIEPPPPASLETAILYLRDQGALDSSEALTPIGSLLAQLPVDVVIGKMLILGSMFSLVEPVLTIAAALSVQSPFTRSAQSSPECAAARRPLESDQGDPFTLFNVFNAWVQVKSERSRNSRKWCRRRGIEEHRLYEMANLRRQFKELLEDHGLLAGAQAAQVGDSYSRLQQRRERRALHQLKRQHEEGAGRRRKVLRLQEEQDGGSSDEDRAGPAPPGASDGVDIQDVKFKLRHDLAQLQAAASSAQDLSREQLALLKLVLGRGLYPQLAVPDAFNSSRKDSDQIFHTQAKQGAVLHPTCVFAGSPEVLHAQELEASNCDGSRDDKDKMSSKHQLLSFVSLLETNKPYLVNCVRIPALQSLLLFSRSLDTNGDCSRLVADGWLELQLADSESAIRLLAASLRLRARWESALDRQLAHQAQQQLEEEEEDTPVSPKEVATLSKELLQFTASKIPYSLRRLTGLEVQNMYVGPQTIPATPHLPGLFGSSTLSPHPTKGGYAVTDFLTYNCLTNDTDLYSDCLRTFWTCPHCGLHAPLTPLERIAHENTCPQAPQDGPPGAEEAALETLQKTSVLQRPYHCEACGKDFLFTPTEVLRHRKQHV

B1: RNA helicase MOV10 (protein, UniProt Q9HCE1 1-1003)
chain: MPSKFSCRQLREAGQCFESFLVVRGLDMETDRERLRTIYNRDFKISFGTPAPGFSSMLYGMKIANLAYVTKTRVRFFRLDRWADVRFPEKRRMKLGSDISKHHKSLLAKIFYDRAEYLHGKHGVDVEVQGPHEARDGQLLIRLDLNRKEVLTLRLRNGGTQSVTLTHLFPLCRTPQFAFYNEDQELPCPLGPGECYELHVHCKTSFVGYFPATVLWELLGPGESGSEGAGTFYIARFLAAVAHSPLAAQLKPMTPFKRTRITGNPVVTNRIEEGERPDRAKGYDLELSMALGTYYPPPRLRQLLPMLLQGTSIFTAPKEIAEIKAQLETALKWRNYEVKLRLLLHLEELQMEHDIRHYDLESVPMTWDPVDQNPRLLTLEVPGVTESRPSVLRGDHLFALLSSETHQEDPITYKGFVHKVELDRVKLSFSMSLLSRFVDGLTFKVNFTFNRQPLRVQHRALELTGRWLLWPMLFPVAPRDVPLLPSDVKLKLYDRSLESNPEQLQAMRHIVTGTTRPAPYIIFGPPGTGKTVTLVEAIKQVVKHLPKAHILACAPSNSGADLLCQRLRVHLPSSIYRLLAPSRDIRMVPEDIKPCCNWDAKKGEYVFPAKKKLQEYRVLITTLITAGRLVSAQFPIDHFTHIFIDEAGHCMEPESLVAIAGLMEVKETGDPGGQLVLAGDPRQLGPVLRSPLTQKHGLGYSLLERLLTYNSLYKKGPDGYDPQFITKLLRNYRSHPTILDIPNQLYYEGELQACADVVDRERFCRWAGLPRQGFPIIFHGVMGKDEREGNSPSFFNPEEAATVTSYLKLLLAPSSKKGKARLSPRSVGVISPYRKQVEKIRYCITKLDRELRGLDDIKDLKVGSVEEFQGQERSVILISTVRSSQSFVQLDLDFNLGFLKNPKRFNVAVTRAKALLIIVGNPLLLGHDPDWKVFLEFCKENGGYTGCPFPAKLDLQQGQNLLQGLSKLSPSTSGPHSHDYLPQEREGEGGLSLQVEPEWRNEL
B2: exosome component DIS3 (protein, UniProt Q9Y2L1 1-958)
chain: MLKSKTFLKKTRAGGVMKIVREHYLRDDIGCGAPGCAACGGAHEGPALEPQPQDPASSVCPQPHYLLPDTNVLLHQIDVLEDPAIRNVIVLQTVLQEVRNRSAPVYKRIRDVTNNQEKHFYTFTNEHHRETYVEQEQGENANDRNDRAIRVAAKWYNEHLKKMSADNQLQVIFITNDRRNKEKAIEEGIPAFTCEEYVKSLTANPELIDRLACLSEEGNEIESGKIIFSEHLPLSKLQQGIKSGTYLQGTFRASRENYLEATVWIHGDNEENKEIILQGLKHLNRAVHEDIVAVELLPKSQWVAPSSVVLHDEGQNEEDVEKEEETERMLKTAVSEKMLKPTGRVVGIIKRNWRPYCGMLSKSDIKESRRHLFTPADKRIPRIRIETRQASTLEGRRIIVAIDGWPRNSRYPNGHFVRNLGDVGEKETETEVLLLEHDVPHQPFSQAVLSFLPKMPWSITEKDMKNREDLRHLCICSVDPPGCTDIDDALHCRELENGNLEVGVHIADVSHFIRPGNALDQESARRGTTVYLCEKRIDMVPELLSSNLCSLKCDVDRLAFSCIWEMNHNAEILKTKFTKSVINSKASLTYAEAQLRIDSANMNDDITTSLRGLNKLAKILKKRRIEKGALTLSSPEVRFHMDSETHDPIDLQTKELRETNSMVEEFMLLANISVAKKIHEEFSEHALLRKHPAPPPSNYEILVKAARSRNLEIKTDTAKSLAESLDQAESPTFPYLNTLLRILATRCMMQAVYFCSGMDNDFHHYGLASPIYTHFTSPIRRYADVIVHRLLAVAIGADCTYPELTDKHKLADICKNLNFRHKMAQYAQRASVAFHTQLFFKSKGIVSEEAYILFVRKNAIVVLIPKYGLEGTVFFEEKDKPNPQLIYDDEIPSLKIEDTVFHVFDKVKVKIMLDSSNLQHQKIRMSLVEPQIPGISIPTDTSNMDLNGPKKKKMKLGK
B3: UPF3a (protein, UniProt Q9H1J1 1-476)
chain: MRSEKEGAGGLRAAVAARGPSGREKLSALEVQFHRDSQQQEAETPPTSSSGCGGGAGKPREEKRTALSKVVIRRLPPGLTKEQLEEQLRPLPAHDYFEFFAADLSLYPHLYSRAYINFRNPDDILLFRDRFDGYIFLDSKGLEYPAVVEFAPFQKIAKKKLRKKDAKTGSIEDDPEYKKFLETYCVEEEKTSANPETLLGEMEAKTRELIARRTTPLLEYIKNRKLEKQRIREEKREERRRRELEKKRLREEEKRRRREEERCKKKETDKQKKIAEKEVRIKLLKKPEKGEEPTTEKPKERGEEIDTGGGKQESCAPGAVVKARPMEGSLEEPQETSHSGSDKEHRDVERSQEQESEAQRYHVDDGRRHRAHHEPERLSRRSEDEQRWGKGPGQDRGKKGSQDSGAPGEAMERLGRAQRCDDSPAPRKERLANKDRPALQLYDPGARFRARECGGNRRICKAEGSGTGPEKREEAE

These are yes or no findings as the source states them, for the method shown. Binding seen in cells or lysates may run through a third protein. Some results given as binding are weak or reduced against the parent protein; the word gives no strength. Where a sequence is shown, tags or fusion partners need not be part of it.

This assay concerns the target T1, FLAG-DHX34 (human). Description: co-IP; anti-FLAG IP of transiently transfected FLAG-DHX34 from HEK293T lysate, in the absence or presence of RNase A; endogenous partners by western blot. (In general: In western blotting, separated proteins are transferred to a membrane and probed.)
As to “exonuclease XRN1 (from UniProt Q8IZH2 1-1706)”, the binding entry was “binds”.

On to “poly (A) binding protein (PABP1) (from UniProt P11940 1-636)”, for which the binding result is “no binding”.

Regarding SMG6 (from UniProt Q86US8 1-1419), the binding result is “binds”.

For the molecule B1, the binding entry is “binds”.

For B2, the binding result is “binds”.

In the case of B3, the binding entry was “binds”.
